Data from US20260209357A1 (CSL INNOVATION, published 2026).

Target: T1, soluble recombinant human FcRn/β2m (human, UniProt P55899 part only; P61769 part only)
T1 construct: About 42 kDa; also called HuFcRn/b2m; huFcRn/b2m
Assay: SPR, ligand on surface, soluble HuFcRn/b2m as analyte; pH not printed with the table (paragraph 351 speaks of pH 6.0)

T1 sequence (P55899 24-297 limits assumed, chain 1 of 2): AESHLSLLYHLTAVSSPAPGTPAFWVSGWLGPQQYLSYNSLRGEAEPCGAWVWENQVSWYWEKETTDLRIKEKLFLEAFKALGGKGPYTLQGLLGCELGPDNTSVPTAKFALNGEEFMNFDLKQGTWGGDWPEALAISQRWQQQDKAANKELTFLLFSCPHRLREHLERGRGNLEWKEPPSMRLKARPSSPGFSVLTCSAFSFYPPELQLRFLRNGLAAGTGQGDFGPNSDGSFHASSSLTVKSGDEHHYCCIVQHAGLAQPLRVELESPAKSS
T1 sequence (P61769 21-119 limits assumed, chain 2 of 2, further chain): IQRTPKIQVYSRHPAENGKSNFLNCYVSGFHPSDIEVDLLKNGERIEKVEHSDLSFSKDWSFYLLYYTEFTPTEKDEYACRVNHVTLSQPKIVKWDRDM

B1: G1FcYPY-HSA[H464Q_T422W_H535F] (Fc fusion)
chain: EPKSCDKTHTCPPCPAPELLGGPSVFLFPPKPKDTLYISRTPEVTCVVVDVSHEDPEVKFNWYVDGVEVHNAKTKPREEQYNSTYRVVSVLTPLHQDWLNGKEYKCKVSNKALPAPIEKTISKAKGQPREPQVYTLPPSRDELTKNQVSLTCLVKGFYPSDIAVEWESNGQPENNYKTTPPVLDSDGSFFLYSKLTVDKSRWQQGNVFSCSVMHEALHYHYTQKSLSLSPGKDAHKSEVAHRFKDLGEENFKALVLIAFAQYLQQCPFEDHVKLVNEVTEFAKTCVADESAENCDKSLHTLFGDKLCTVATLRETYGEMADCCAKQEPERNECFLQHKDDNPNLPRLVRPEVDVMCTAFHDNEETFLKKYLYEIARRHPYFYAPELLFFAKRYKAAFTECCQAADKAACLLPKLDELR[left out - about 200 residues]NLIKQNCELFEQLGEYKFQNALLVRYTKKVPQVSTPWLVEVSRNLGKVGSKCCKHPEAKRMPCAEDYLSVVLNQLCVLQEKTPVSDRVTKCCTESLVNRRPCFSALEVDETYVPKEFNAETFTFHADICTLSEKERQIKKQTALVELVKFKPKATKEQLKAVMDDFAAFVEKCCKADDKETCFAEEGKKLVAASQAALGL
What does the source list for B1?
Kd: 16.1 nM; koff: 0.00295 s⁻¹; kon: 184000 M⁻¹ s⁻¹
